# In the supplement of paper PMC4166925:
# ± gives the standard deviation of the averaged measurements. In all, about 33,000 sequences were measured (“E-score (dimensionless, -0.5 to 0.5)”: median about -0.049, highest 2% from about 0.37 on). The list shows a part of the results.
# Test system: T1, PmTbr T-box DNA-binding domain (GST fusion)
# T1 sequence: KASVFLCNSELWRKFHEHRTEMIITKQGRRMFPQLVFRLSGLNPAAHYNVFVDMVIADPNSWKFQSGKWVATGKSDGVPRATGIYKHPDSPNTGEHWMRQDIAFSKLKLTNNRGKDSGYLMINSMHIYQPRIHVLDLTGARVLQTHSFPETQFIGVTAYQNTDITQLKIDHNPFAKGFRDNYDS
# Assay: PBM E-score of 8-mer (E-score (dimensionless, -0.5 to 0.5)); Tbr is Tbrain of the sea star Patiria miniata (Pm) or the sea urchin Strongylocentrotus purpuratus (Sp); higher = stronger binding preference; most listed sequences are background and not binding sites
# Details: the construct has about 5 more residues each side
# Method: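 Universal protein-binding microarray (Agilent AMADID 016060, 60-bp probes with a 35-bp variable region) incubated with 200 nM GST-fused Patiria miniata Tbr T-box DNA-binding domain (residues 272-466) in PBS pH 7.5. Scored for every ungapped 8-mer (given with its reverse complement) by the Universal PBM Analysis Suite as E-score (modified Wilcoxon-Mann-Whitney enrichment, range -0.5 to 0.5; >0.45 counts as bound) and Z-score of median probe intensity. Two replicate arrays (datasets 1 and 2).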
# 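Note: 200 nM protein in PBS on universal arrays averaged over duplicate arrays.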
row,Sequence,PBM E-score of 8-mer
1,AACCAGTC,-0.0784 ± 0.098
2,CCAAGCAG,-0.173 ± 0.041
3,AACTAGCG,-0.0154 ± 0.092
4,AATCTGTG,0.143 ± 0.031
5,CTCATGAC,-0.102 ± 0.065
6,AGACGGCG,-0.0944 ± 0.11
7,AGTCTTTA,-0.193 ± 0.069
8,AGTATCAT,-0.221 ± 0.054
9,TACGGGCA,-0.148 ± 0.08
10,ATAGATAG,-0.176 ± 0.049
11,ACGCACAT,0.0989 ± 0.047
12,CTCGCGAC,0.326 ± 0.0051
13,CCAAGACA,-0.0176 ± 0.016
14,CTTGACTA,0.033 ± 0.076
15,AGCTGGAA,-0.132 ± 0.025
16,ACACGTCA,0.361 ± 0.0048
17,ATTCCTCA,-0.108 ± 0.025
18,CCGAAACA,-0.00945 ± 0.018
19,ACACATTA,0.264 ± 0.008
20,ACGCATAA,-0.118 ± 0.039
21,AGCCCTGG,-0.26 ± 0.018
22,GGCCCTCA,-0.295 ± 0.033
23,GCCACTAC,0.147 ± 0.013
24,GGCACGTA,0.0287 ± 0.0079
25,AGTCGGAG,-0.144 ± 0.002

row,Sequence,PBM E-score of 8-mer
1,GCAACGGC,0.0371 ± 0.011
2,ATACGGGG,-0.144 ± 0.043
3,CTTTCGAC,0.0243 ± 0.02
4,AAACTGGC,0.13 ± 0.044
5,ATCAGAAC,-0.365 ± 0.033
6,AGGGGGTA,0.00961 ± 0.032
7,AGCTGGCA,0.142 ± 0.022
8,CCTTGCGA,0.243 ± 0.012
9,ATTATACC,0.119 ± 0.0056
10,ATATTGCA,0.0576 ± 0.082
11,TAGCCAAA,-0.194 ± 0.012
12,TGACCCAA,-0.145 ± 0.0015
13,CTCTAGTC,-0.239 ± 0.017
14,AGTGCATG,-0.347 ± 0.018
15,GCCTTCAA,-0.155 ± 0.025
16,ATATCGCC,0.139 ± 0.029
17,CAACCGTC,0.0479 ± 0.024
18,ACTTTCAC,0.313 ± 0.0082
19,AACACACT,0.229 ± 0.021
20,CCTAGCGC,0.153 ± 0.098
21,ACAAAGCT,-0.165 ± 0.021
22,AATAGTAG,-0.0825 ± 0.047
23,GTTTGATA,-0.123 ± 0.13
24,CGCAATTA,0.00835 ± 0.072
25,AAAGTACG,-0.13 ± 0.044

row,Sequence,PBM E-score of 8-mer
1,GTCATACA,0.0295 ± 0.042
2,CTGGGTAC,-0.184 ± 0.07
3,AGTGGAAC,0.00316 ± 0.023
4,AGGTCACT,0.071 ± 0.038
5,ACGGTAGG,-0.191 ± 0.084
6,AGCGAACC,-0.0638 ± 0.0049
7,TCCGTAGA,-0.294 ± 0.049
8,TAAACCTA,-0.0446 ± 0.025
9,CAGGCTTA,-0.197 ± 0.047
10,AAACCGTA,-0.102 ± 0.012
11,AATCATCC,-0.13 ± 0.073
12,ATTCGCTA,0.231 ± 0.016
13,CATACGGC,-0.163 ± 0.044
14,GATATAGA,-0.4 ± 0.014
15,AGGGCGCC,0.0863 ± 0.013
16,CTCATCAA,-0.0963 ± 0.0034
17,ATGATCTA,-0.256 ± 0.043
18,CGATAGCA,0.211 ± 0.016
19,CGACCCCA,0.0119 ± 0.012
20,CTCAACCA,-0.14 ± 0.014
21,ACGGTTGG,0.0218 ± 0.01
22,ACTAGGCT,-0.0822 ± 0.0071
23,CACGCACC,0.281 ± 0.035
24,ACCAGTAC,-0.152 ± 0.068
25,AGGCTAGA,-0.144 ± 0.04

row,Sequence,PBM E-score of 8-mer
1,CTGTCTGC,-0.0547 ± 0.12
2,CCTTCTAG,-0.17 ± 0.038
3,ACTCTCGA,0.0126 ± 0.0063
4,AGCTAGGG,-0.0348 ± 0.0053
5,CAGCCCAC,-0.148 ± 0.034
6,GCGGGGCC,-0.183 ± 0.017
7,ACAGTCCG,-0.0728 ± 0.0024
8,CGTATTAA,-0.182 ± 0.053
9,ACCCTATG,0.103 ± 0.024
10,ACTAAGTC,-0.15 ± 0.015
11,CCCGGCCC,-0.0935 ± 0.0013
12,TATAAAGA,-0.19 ± 0.016
13,ACTATCGC,0.24 ± 0.015
14,AAAGCTGT,0.199 ± 0.051
15,GCCAATAA,-0.101 ± 0.046
16,CTTCTTAC,-0.0227 ± 0.035
17,AATGAACG,-0.108 ± 0.021
18,AATACGAG,-0.144 ± 0.014
19,AACCATCC,-0.268 ± 0.02
20,AACCTACC,-0.0696 ± 0.071
21,CAGGCTCC,-0.2 ± 0.033
22,AACAAAAT,-0.126 ± 0.08
23,AGGAGGAC,-0.396 ± 0.055
24,CCGCTCTA,0.0173 ± 0.017
25,CTGGGGGA,-0.184 ± 0.011

row,Sequence,PBM E-score of 8-mer
1,CAATGGGG,-0.167 ± 0.036
2,CGAACACC,0.3416 ± 0.0028
3,CATAGTTC,-0.0987 ± 0.098
4,GCATGGCC,-0.173 ± 0.1
5,GCCTTCCC,-0.248 ± 0.073
6,TCGTACGA,0.163 ± 0.015
7,AACCACGG,0.044 ± 0.11
8,ATATAATC,0.0369 ± 0.11
9,ATTGGGCC,-0.167 ± 0.011
10,CCCAGCGG,-0.0719 ± 0.007
11,CGGCATTA,-0.201 ± 0.049
12,CGCATTAA,-0.123 ± 0.058
13,AACCTTGG,-0.183 ± 0.041
14,CCTCCTGC,0.0635 ± 0.0095
15,CTGGACAA,0.0428 ± 0.043
16,CAACCCAG,-0.168 ± 0.015
17,ACCACCGA,-0.102 ± 0.017
18,CGACAAAA,0.2703 ± 0.00057
19,GGTTTTGA,-0.061 ± 0.055
20,GGTTCAGA,0.0331 ± 0.047
21,AGTGCGAT,0.427 ± 0.0052
22,TCTGCCCA,0.0729 ± 0.1
23,CCGATACC,-0.0575 ± 0.018
24,TCCAGAGA,-0.0321 ± 0.029
25,TCAATAAA,-0.035 ± 0.048

row,Sequence,PBM E-score of 8-mer
1,AGAGGACC,-0.212 ± 0.012
2,CTTTTGGA,-0.0115 ± 0.037
3,CCCTCACA,0.174 ± 0.058
4,ACCATCTC,-0.0247 ± 0.023
5,ATTCAGGA,-0.176 ± 0.0068
6,CCATATGA,-0.252 ± 0.018
7,ATAGAGGC,-0.0323 ± 0.029
8,AAAGAACT,-0.235 ± 0.0052
9,GCATGGTA,-0.0838 ± 0.006
10,CTTCACGA,0.0848 ± 0.025
11,AGTATCGC,0.217 ± 0.0038
12,GTATCGAA,0.106 ± 0.012
13,CTTTTCGA,-0.125 ± 0.047
14,TATTCGCA,0.357 ± 0.022
15,CGAACAAA,-0.0147 ± 0.032
16,CCCACCGC,0.11 ± 0.051
17,GACCTCAA,-0.0689 ± 0.019
18,CAGCGAAG,0.222 ± 0.0074
19,ATCTCCTG,-0.14 ± 0.0054
20,GCGGCGCC,0.161 ± 0.034
21,ATTGTTCG,-0.0265 ± 0.029
22,GCACGCCA,0.0289 ± 0.062
23,CAACCGAG,0.0284 ± 0.0078
24,GCTCGAAA,-0.0748 ± 0.028
25,TCTCTAAA,-0.135 ± 0.028

row,Sequence,PBM E-score of 8-mer
1,TGGACACA,-0.0183 ± 0.022
2,GCAGGGTA,-0.0138 ± 0.034
3,ATGAGGTG,0.382 ± 0.018
4,AATCCCTG,-0.189 ± 0.024
5,ATCGCTCG,-0.0889 ± 0.075
6,ACGATAAC,0.0614 ± 0.045
7,ACTACACT,0.0796 ± 0.029
8,TTTATAAA,-0.387 ± 0.13
9,ACTGGAAC,-0.171 ± 0.018
10,AAGCCAGT,-0.153 ± 0.051
11,AGTCGATG,-0.0426 ± 0.053
12,AAGACGAG,-0.305 ± 0.021
13,CGATGATC,0.0166 ± 0.039
14,ATGTCACG,0.262 ± 0.012
15,AGGGAGGC,-0.108 ± 0.018
16,ACTCGCGG,0.264 ± 0.031
17,GAGGCAAA,-0.183 ± 0.099
18,AGCGTTGA,0.102 ± 0.055
19,GACGGTGC,0.0989 ± 0.077
20,GTGGCCAC,0.11 ± 0.086
21,CGGTTAAA,-0.136 ± 0.049
22,ACTGCATC,-0.0791 ± 0.01
23,GAGGTTGA,0.0675 ± 0.0098
24,CCTAGCGA,0.165 ± 0.037
25,ATTATAAA,-0.14 ± 0.012

row,Sequence,PBM E-score of 8-mer
1,AAGCCCCG,-0.167 ± 0.025
2,GACTCAGA,-0.213 ± 0.097
3,AATTTGAC,0.0502 ± 0.13
4,CAGACCAC,-0.226 ± 0.05
5,TACCGAGA,-0.129 ± 0.068
6,TTGAGCAA,-0.0163 ± 0.022
7,GCAGAGAC,-0.244 ± 0.025
8,GAGTACGC,0.121 ± 0.057
9,GAACTGGC,-0.193 ± 0.076
10,ACTACGCG,0.0285 ± 0.0016
11,CCGAATCG,0.0234 ± 0.023
12,AGACCACA,-0.115 ± 0.062
13,AGAAGAGC,-0.303 ± 0.11
14,AAACGTCG,-0.0373 ± 0.04
15,AATTATGT,-0.0893 ± 0.047
16,AGAGACGA,-0.111 ± 0.03
17,CCGTGAGC,0.071 ± 0.055
18,ACCGTTCC,0.0159 ± 0.023
19,CACCAGTA,0.132 ± 0.018
20,GCAGTGGC,0.058 ± 0.083
21,ATAGGGGC,-0.206 ± 0.017
22,TCAACCGA,-0.0435 ± 0.025
23,CAGTATGG,-0.291 ± 0.11
24,AAACTGGA,-0.0699 ± 0.034
25,CATTACAA,-0.23 ± 0.0056

row,Sequence,PBM E-score of 8-mer
1,AAACATAT,0.0457 ± 0.036
2,CGATCGTC,0.0191 ± 0.09
3,CCACAGTC,0.00792 ± 0.051
4,CAGCGTAA,-0.134 ± 0.04
5,AAGTGCCA,0.41 ± 0.0065
6,CGAAAAAC,0.0414 ± 0.053
7,GGATGCAA,-0.138 ± 0.03
8,GTTGTGGA,0.0762 ± 0.031
9,CCCGTCCC,-0.196 ± 0.026
10,CGAGCATA,0.0908 ± 0.038
11,GTAACTGA,-0.0334 ± 0.026
12,CAAGGCTC,-0.112 ± 0.03
13,AGGTAGGA,-0.171 ± 0.0049
14,GACCTAAA,-0.219 ± 0.037
15,GAAAGCAA,-0.152 ± 0.019
16,ACACGATA,0.0238 ± 0.047
17,TGGTCCAA,-0.272 ± 0.067
18,CTAGGGAG,-0.241 ± 0.018
19,CCGTAAGA,-0.234 ± 0.052
